86 sequences from the supplement of paper PMC4166925 can be followed below.

± gives the standard deviation of the averaged measurements. Whole data set: some 33,000 sequences, median “E-score (dimensionless, -0.5 to 0.5)” near -0.049, cut for the highest 2% near 0.37. The list shows a part of the results.

The test system of the assay is T1, PmTbr T-box DNA-binding domain (GST fusion).
T1 sequence: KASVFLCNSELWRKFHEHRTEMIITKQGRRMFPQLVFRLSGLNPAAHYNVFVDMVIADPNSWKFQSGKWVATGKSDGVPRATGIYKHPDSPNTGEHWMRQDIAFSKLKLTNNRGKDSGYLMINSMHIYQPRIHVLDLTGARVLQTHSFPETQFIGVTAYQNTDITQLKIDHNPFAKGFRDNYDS
Description: PBM E-score of 8-mer (E-score (dimensionless, -0.5 to 0.5)); Tbr is Tbrain of the sea star Patiria miniata (Pm) or the sea urchin Strongylocentrotus purpuratus (Sp); higher = stronger binding preference; most listed sequences are background and not binding sites. Conditions: the construct has about 5 more residues each side. Summed up: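 Expression of GST-fused Tbr T-box DNA-binding domains, each holding the full T-box plus roughly five flanking residues, was carried out in BL21 E. coli at 20 °C, with purification by glutathione affinity chromatography. Universal Agilent arrays made double-stranded by primer extension were incubated with the protein at 200 nM in PBS (pH 7.5), then scanned and quantified. All ungapped 8-mers were scored from probe intensities, and each received an enrichment E-score from the Universal PBM Analysis Suite, averaged over duplicate arrays.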
AAAGCCGC: the “PBM E-score of 8-mer” value was determined as 0.114 ± 0.069. As for GAGTGTGA, the “PBM E-score of 8-mer” value was found to be 0.4754 ± 0.0017. As for CACACGTA, the “PBM E-score of 8-mer” value was determined as 0.357 ± 0.0053. As for CCGTTGCG, the figure is -0.05 ± 0.12.

For AATTAAAT, the “PBM E-score of 8-mer” value was -0.258 ± 0.05. To CAGCCGAG belongs -0.0598 ± 0.015. As for CCATTTCC, the figure is -0.168 ± 0.014; as for GCGTTTTA, 0.0664 ± 0.083.

Regarding CACGATAC, the “PBM E-score of 8-mer” value is 0.0378 ± 0.017. To AATAATAA belongs -0.195 ± 0.14. As for TCACGCCA, the figure is 0.36 ± 0.028; as for GTCCAAGA, -0.183 ± 0.069; as for AGACTCCA, -0.285 ± 0.02. As for AAGTACCA, the “PBM E-score of 8-mer” value was -0.139 ± 0.04.

Regarding TAGTTGAA, the “PBM E-score of 8-mer” value was -0.122 ± 0.071. To TATAGGCA belongs -0.214 ± 0.016. To AAGCTGGT belongs -0.0921 ± 0.0075; to TGAAGCCA, -0.0702 ± 0.018; to ATAACAGC, 0.134 ± 0.038. Consider CCACGTTC, for which the “PBM E-score of 8-mer” value was 0.0527 ± 0.00073. As for CTCTCAAA, the figure is 0.0952 ± 0.0076; as for GGTAAGGA, -0.00604 ± 0.057.

ATTGCTTG: the “PBM E-score of 8-mer” value amounted to 0.0819 ± 0.015.

For the sequence CGTCCACC, the “PBM E-score of 8-mer” value is -0.162 ± 0.0019. AAAACAAT: the “PBM E-score of 8-mer” value is -0.175 ± 0.012.

As to CATTGGGC, the “PBM E-score of 8-mer” value is -0.182 ± 0.018.

Take GACTTCAC: the “PBM E-score of 8-mer” value is -0.0267 ± 0.026.

Regarding ATCCTTCA, the “PBM E-score of 8-mer” value was -0.143 ± 0.044. To GCGAGCGC belongs 0.273 ± 0.069; to GCACTCAC, 0.193 ± 0.067.

For the sequence GGCTTAAA, the “PBM E-score of 8-mer” value was -0.302 ± 0.016. To AAAATCGT belongs 0.158 ± 0.078; to CAGAGCGC, -0.00607 ± 0.049. To AGATCCAT belongs -0.245 ± 0.04. With GTGCCAAC, the “PBM E-score of 8-mer” value was determined as 0.403 ± 0.0056. As for TAAACTTA, the “PBM E-score of 8-mer” value was -0.205 ± 0.067. To ATGGGAGA belongs -0.142 ± 0.094. To CTGTTTCA belongs -0.166 ± 0.038. As for GGAGAACC, the figure is -0.0137 ± 0.012. In the case of AGGCGCGG, the “PBM E-score of 8-mer” value was found to be 0.242 ± 0.019. To AGGGTCCC belongs -0.212 ± 0.013. With ATCCCTGA, the “PBM E-score of 8-mer” value was -0.336 ± 0.046. As for GCGAAGCC, the figure is 0.053 ± 0.00029; as for CCGAAAAG, 0.00971 ± 0.0032; as for CTGTCTCA, 0.0422 ± 0.0098. Take CAATATCC: the “PBM E-score of 8-mer” value was -0.198 ± 0.079. To CCGGCTCC belongs -0.212 ± 0.021. As for AGGGCCAC, the figure is -0.0654 ± 0.012; as for AGTGCGGA, 0.265 ± 0.0086; as for GTTCGACA, 0.122 ± 0.051. As for ACGTAATG, the figure is -0.235 ± 0.035; as for AGCTTTGG, -0.11 ± 0.0043; as for AAACAGAT, -0.163 ± 0.095. As for ATCCGTCC, the “PBM E-score of 8-mer” value was -0.178 ± 0.078. To CGGGTACC belongs -0.0986 ± 0.039; to GAAACTTC, -0.186 ± 0.067; to ATTTCCAC, 0.0359 ± 0.044. To ATTAAAGG belongs -0.094 ± 0.012; to AGCTCTTG, -0.336 ± 0.0074. To CCCTTACC belongs 0.00932 ± 0.072; to ACGAACCG, 0.0516 ± 0.07. In the case of AGTGCTGA, the “PBM E-score of 8-mer” value was 0.11 ± 0.0089. For ACGGCGGC, the “PBM E-score of 8-mer” value came out at 0.00677 ± 0.053. As for ATATATGA, the figure is -0.00737 ± 0.039. To AACAACGC belongs 0.124 ± 0.02; to CGGTCCAG, -0.316 ± 0.042. To AGCCTAAT belongs -0.156 ± 0.062. As to AATATTAA, the “PBM E-score of 8-mer” value is -0.0683 ± 0.083. As for GACGTACC, the figure is -0.134 ± 0.069. To ACGCTAGG belongs 0.145 ± 0.0059; to CTTTCGTA, -0.0543 ± 0.1; to GCCAGGCA, 0.0365 ± 0.0073. As for CACCCTTA, the figure is 0.288 ± 0.0075; as for ACGTCAAA, 0.0654 ± 0.076. With GTATGATA, the “PBM E-score of 8-mer” value is -0.0519 ± 0.005. As for AAGCTTGG, the figure is -0.154 ± 0.044. To ACGCCATG belongs -0.0701 ± 0.038. To AACCACCT belongs 0.103 ± 0.007; to CGCTGGTA, -0.0514 ± 0.001; to AGGAGGAA, -0.13 ± 0.018. For ATACTGGG, the “PBM E-score of 8-mer” value is -0.215 ± 0.013. As for AACTAGTC, the figure is 0.0212 ± 0.032; as for AACGATCG, 0.0874 ± 0.024. As for ACCCAAGT, the figure is 0.135 ± 0.0038. To AGCGTGAC belongs 0.3524 ± 0.0023.

CAGGAACC: the “PBM E-score of 8-mer” value is -0.26 ± 0.069.
